B1: CTLA-4 Variant 1319 in Fc fusion format (Fc fusion)
chain: MHVAQPAVVLASSRGIASFVCEYAPPGKATEVRVTVLRQADSQVTEVCAATYMMGSELSTQDYPNCTGTASGNQVNLTIQGLRAMDTGLYICQVELMYPPPYYLGIGNGTQIYVIDPEPCPDSDV[letters of human IgG1 Fc omitted]
B2: CTLA-4 Variant 0673 in Fc fusion format (Fc fusion)
chain: MHVAQPAVVLASSRGIASFVCEYASPGKATEVRVTVLRQADSQVTEVCAAYMMGNELTFLGDSTCTGTSSGNQVNLTIQGLRAMDSGLYICKVELMYPPPYYLGIGNGTQIYVIDPEPCPDSDV[letters of human IgG1 Fc omitted]
B3: CTLA-4 Variant 0701 in Fc fusion format (Fc fusion)
chain: B2 chain with V44E, M53V, T64I, S86T, L103E, I114F
B4: CTLA-4 Variant 0943 in Fc fusion format (Fc fusion)
chain: MHVAQPAVVLASSRGIASFVCEYAPPGKATEVRVTVLRQADSQVTEVCAATYMMGNESTFLDDSICTGTSSGNQVNLTIRGLRALDTGLYICQVELMYPPPYYLGIGNGTQIYVIDPEPCPDSDV[letters of human IgG1 Fc omitted]
B5: CTLA-4 Variant 0788 in Fc fusion format (Fc fusion)
chain: B4 chain with P25S, V32I, L85V, Q93M, L104Q, N108S
B6: CTLA-4 Variant 0636 in Fc fusion format (Fc fusion)
chain: B4 chain with D41G, M54K, I65V, S70T, R80Q, L85M, I115V
B7: CTLA-4 Variant 0722 in Fc fusion format (Fc fusion)
chain: B4 chain with I16V, S42G, R80Q, L85M, Q93E, L104R
B8: CTLA-4 Variant 0745 in Fc fusion format (Fc fusion)
chain: B4 chain with I16T, P25S, N56G, R80Q, L85M, Q93E, L104R, I106V
B9: CTLA-4 Variant 0645 in Fc fusion format (Fc fusion)
chain: B4 chain with I16T, S58L, T59A, L61P, I65V, S70T, R80Q, L85M, Q93E
B10: CTLA-4 Variant 1249 in Fc fusion format (Fc fusion)
chain: B4 chain with I16R, P25N, S58P, S70M, R80Q, L85V, Q93T, N108D
B11: CTLA-4 Variant 1322 in Fc fusion format (Fc fusion)
chain: B1 chain with P25N, G27S, M54K, A70S
B12: CTLA-4 Variant 1114 in Fc fusion format (Fc fusion)
chain: B4 chain with I16R, P25N, S58G, S70T, R80Q, L85K
B13: CTLA-4 Variant 1321 in Fc fusion format (Fc fusion)
chain: B4 chain with I16S, P25N, M54K, S58G, S70A, L85S
B14: CTLA-4 Variant 1299 in Fc fusion format (Fc fusion)
chain: B4 chain with I16R, A24T, P25N, G27S, S58A, S70A, R80Q, L85Q
B15: CTLA-4 Variant 1227 in Fc fusion format (Fc fusion)
chain: B4 chain with I16S, P25N, G27S, S58A, S70A, R80Q, L85Q, Q93H
B16: CTLA-4 Variant 1115 in Fc fusion format (Fc fusion)
chain: B4 chain with I16V, P25N, S58G, S70A, R80Q, L85Q
B17: CTLA-4 Variant 1315 in Fc fusion format (Fc fusion)
chain: B4 chain with I16S, P25N, S58G, S70A, L85S

Substitutions are numbered along the chain they refer to.

One assay has as its target CD80 (B7-1) expressed on Raji cells (UniProt P33681). Kind of assay: cell-based or functional assay.
Chain of UniProt P33681 (P33681 35-288): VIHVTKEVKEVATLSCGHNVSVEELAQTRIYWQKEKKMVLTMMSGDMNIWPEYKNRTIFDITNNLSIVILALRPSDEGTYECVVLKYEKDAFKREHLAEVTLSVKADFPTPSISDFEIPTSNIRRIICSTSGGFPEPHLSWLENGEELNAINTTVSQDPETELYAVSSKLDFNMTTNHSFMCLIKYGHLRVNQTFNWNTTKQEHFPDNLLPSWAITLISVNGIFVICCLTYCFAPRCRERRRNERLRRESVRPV
B1 displayed a Fold Improvement over Wild Type (SEQ ID NO: 35), Raji/Jurkat IC50 of 38 fold and a Raji/Jurkat Dual Cell Assay IC50 (IL-2 release) of 0.78 nM.

B2: the Fold Improvement over Wild Type (SEQ ID NO: 35), Raji/Jurkat IC50 amounted to 22 fold and the Raji/Jurkat Dual Cell Assay IC50 (IL-2 release) was found to be 1.38 nM.

In turn, B3 showed a Fold Improvement over Wild Type (SEQ ID NO: 35), Raji/Jurkat IC50 of 19 fold and a Raji/Jurkat Dual Cell Assay IC50 (IL-2 release) of 1.61 nM.

The molecule B4 returned a Fold Improvement over Wild Type (SEQ ID NO: 35), Raji/Jurkat IC50 of 56 fold and a Raji/Jurkat Dual Cell Assay IC50 (IL-2 release) of 0.54 nM.

In turn, B5 came in with a Fold Improvement over Wild Type (SEQ ID NO: 35), Raji/Jurkat IC50 of 19 fold and a Raji/Jurkat Dual Cell Assay IC50 (IL-2 release) of 1.6 nM.

In the case of B6, the Fold Improvement over Wild Type (SEQ ID NO: 35), Raji/Jurkat IC50 stood at 24 fold and the Raji/Jurkat Dual Cell Assay IC50 (IL-2 release) was found to be 1.26 nM.

Turning to B7, the Fold Improvement over Wild Type (SEQ ID NO: 35), Raji/Jurkat IC50 came to 28 fold and the Raji/Jurkat Dual Cell Assay IC50 (IL-2 release) is 1.07 nM.

On to B8, for which the Fold Improvement over Wild Type (SEQ ID NO: 35), Raji/Jurkat IC50 came to 22 fold and the Raji/Jurkat Dual Cell Assay IC50 (IL-2 release) stood at 1.36 nM.

Molecule B9 yielded a Fold Improvement over Wild Type (SEQ ID NO: 35), Raji/Jurkat IC50 of 24 fold and a Raji/Jurkat Dual Cell Assay IC50 (IL-2 release) of 1.24 nM.

For the molecule B10, the Fold Improvement over Wild Type (SEQ ID NO: 35), Raji/Jurkat IC50 was found to be 43 fold and the Raji/Jurkat Dual Cell Assay IC50 (IL-2 release) came out at 0.69 nM.

In a further assay the target is CD86 (B7-2) expressed on Raji cells (UniProt P42081). Kind of assay: cell-based or functional assay.
Chain of UniProt P42081 (P42081 24-329): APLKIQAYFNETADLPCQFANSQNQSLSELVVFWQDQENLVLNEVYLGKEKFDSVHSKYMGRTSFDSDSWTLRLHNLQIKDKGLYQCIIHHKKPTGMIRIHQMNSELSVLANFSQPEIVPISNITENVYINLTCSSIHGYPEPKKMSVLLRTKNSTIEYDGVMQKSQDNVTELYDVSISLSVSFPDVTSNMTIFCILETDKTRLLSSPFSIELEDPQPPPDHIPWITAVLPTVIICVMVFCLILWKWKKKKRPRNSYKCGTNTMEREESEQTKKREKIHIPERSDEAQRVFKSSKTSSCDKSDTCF
Molecule B1 displayed a Fold Improvement over Wild Type (SEQ ID NO: 35), Raji/Jurkat IC50 of 38 fold and a Raji/Jurkat Dual Cell Assay IC50 (IL-2 release) of 0.78 nM.

In turn, B2 returned a Fold Improvement over Wild Type (SEQ ID NO: 35), Raji/Jurkat IC50 of 22 fold and a Raji/Jurkat Dual Cell Assay IC50 (IL-2 release) of 1.38 nM.

The molecule B3 displayed a Fold Improvement over Wild Type (SEQ ID NO: 35), Raji/Jurkat IC50 of 19 fold and a Raji/Jurkat Dual Cell Assay IC50 (IL-2 release) of 1.61 nM.

On to B4, for which the Fold Improvement over Wild Type (SEQ ID NO: 35), Raji/Jurkat IC50 amounted to 56 fold and the Raji/Jurkat Dual Cell Assay IC50 (IL-2 release) came out at 0.54 nM.

B5 yielded a Fold Improvement over Wild Type (SEQ ID NO: 35), Raji/Jurkat IC50 of 19 fold and a Raji/Jurkat Dual Cell Assay IC50 (IL-2 release) of 1.6 nM.

In the case of B6, the Fold Improvement over Wild Type (SEQ ID NO: 35), Raji/Jurkat IC50 is 24 fold and the Raji/Jurkat Dual Cell Assay IC50 (IL-2 release) was determined as 1.26 nM.

As for B7, the Fold Improvement over Wild Type (SEQ ID NO: 35), Raji/Jurkat IC50 stood at 28 fold and the Raji/Jurkat Dual Cell Assay IC50 (IL-2 release) came out at 1.07 nM.

Take B8: the Fold Improvement over Wild Type (SEQ ID NO: 35), Raji/Jurkat IC50 is 22 fold and the Raji/Jurkat Dual Cell Assay IC50 (IL-2 release) stood at 1.36 nM.

As for B9, the Fold Improvement over Wild Type (SEQ ID NO: 35), Raji/Jurkat IC50 amounted to 24 fold and the Raji/Jurkat Dual Cell Assay IC50 (IL-2 release) stood at 1.24 nM.

In turn, B10 showed a Fold Improvement over Wild Type (SEQ ID NO: 35), Raji/Jurkat IC50 of 43 fold and a Raji/Jurkat Dual Cell Assay IC50 (IL-2 release) of 0.69 nM.

Another assay deals with human CD86 extracellular domain with FLAG 10xhis tag (human). Kind of assay: SPR (Biacore 2000), CTLA-4-Fc amine-coupled to CM5, ligand ECD as analyte, monovalent affinity.
Chain of human CD86 extracellular domain with FLAG 10xhis tag (human) (chain, as listed by the source limits assumed, form in doubt): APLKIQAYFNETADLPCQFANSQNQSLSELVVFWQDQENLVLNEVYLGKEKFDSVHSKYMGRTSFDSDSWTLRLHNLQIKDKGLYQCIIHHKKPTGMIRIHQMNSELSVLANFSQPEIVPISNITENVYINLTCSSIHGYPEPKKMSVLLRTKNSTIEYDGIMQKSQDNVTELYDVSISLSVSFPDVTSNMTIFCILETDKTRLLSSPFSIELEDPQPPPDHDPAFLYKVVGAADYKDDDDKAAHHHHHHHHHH
One may read the Kd as the equilibrium constant for the complex coming apart. The molecule B11 yielded an equilibrium dissociation constant (Kd) of 526 nM.

For B12, the Kd turned out to be 1340 nM.

Molecule B13 came in with a Kd of 1080 nM.

The molecule B14 gave a Kd of 1390 nM.

Regarding B15, the Kd turned out to be 1150 nM.

With B16, the dissociation constant (Kd) came out at 1540 nM.

Molecule B17 gave a dissociation constant Kd of 1130 nM.

In another assay the target is cynomolgus monkey CD86 extracellular domain with FLAG 10xhis tag (cynomolgus monkey). Described as above.
Chain of cynomolgus monkey CD86 extracellular domain with FLAG 10xhis tag (cynomolgus monkey) (chain, as listed by the source limits assumed, form in doubt): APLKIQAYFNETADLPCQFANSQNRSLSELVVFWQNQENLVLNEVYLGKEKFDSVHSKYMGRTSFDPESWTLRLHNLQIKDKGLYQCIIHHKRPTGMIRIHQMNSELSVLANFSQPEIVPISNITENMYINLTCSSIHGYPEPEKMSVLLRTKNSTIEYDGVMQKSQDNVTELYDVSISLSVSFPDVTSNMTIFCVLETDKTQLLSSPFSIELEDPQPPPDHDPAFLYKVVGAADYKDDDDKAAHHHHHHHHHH
Consider B11, for which the Kd came to 330 nM.

B12 had a Kd of 1280 nM.

Consider B13, for which the equilibrium dissociation constant (Kd) was found to be 960 nM.

Turning to B14, the Kd was 1020 nM.

With B15, the Kd turned out to be 1020 nM.

B16 displayed a dissociation constant Kd of 1070 nM.

The molecule B17 had a dissociation constant (Kd) of 750 nM.

Another assay has as its target human CD86 extracellular domain with FLAG 10xhis tag (human). Put plainly: SPR (Biacore 2000), ratio of KD. A general note: SPR reads the build-up and loss of mass on a sensor chip optically.
Consider B11, for which the fold-improvement in affinity over wild type CTLA-4 in Fc fusion format is 12 fold.

Take B12: the fold-improvement in affinity over wild type CTLA-4 in Fc fusion format is 5 fold.

As for B13, the fold-improvement in affinity over wild type CTLA-4 in Fc fusion format amounted to 6 fold.

As for B14, the fold-improvement in affinity over wild type CTLA-4 in Fc fusion format turned out to be 5 fold.

On to B15, for which the fold-improvement in affinity over wild type CTLA-4 in Fc fusion format was determined as 6 fold.

For B16, the fold-improvement in affinity over wild type CTLA-4 in Fc fusion format stood at 4 fold.

As for B17, the fold-improvement in affinity over wild type CTLA-4 in Fc fusion format was 6 fold.

Another assay concerns the target cynomolgus monkey CD86 extracellular domain with FLAG 10xhis tag (cynomolgus monkey). Put plainly: SPR (Biacore 2000), ratio of KD.
B11: the fold-improvement in affinity over wild type CTLA-4 in Fc fusion format was found to be 20 fold.

B12: the fold-improvement in affinity over wild type CTLA-4 in Fc fusion format stood at 5 fold.

B13: the fold-improvement in affinity over wild type CTLA-4 in Fc fusion format is 7 fold.

On to B14, for which the fold-improvement in affinity over wild type CTLA-4 in Fc fusion format came to 6 fold.

Take B15: the fold-improvement in affinity over wild type CTLA-4 in Fc fusion format was found to be 6 fold.

With B16, the fold-improvement in affinity over wild type CTLA-4 in Fc fusion format stood at 6 fold.

Consider B17, for which the fold-improvement in affinity over wild type CTLA-4 in Fc fusion format was 9 fold.

These data come from patent US20150104450A1.
